Measured values as given in the supplement of paper PMC11417369.
± gives the standard deviation of the averaged measurements. The list shows a part of the results.

test system: PfAP2-G AP2 domain (GST-tagged); experiment: gcPBM binding intensity (ln(normalized median fluorescence intensity)); higher = stronger DNA binding
Outline: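 GST-tagged P. falciparum DNA-binding domains, expressed in E. coli (about 25 μg on average), were applied for 1 h to an Agilent 4 × 180k array of primer-extended double-stranded 36-bp intergenic genomic probes plus negative controls. The binding buffer was 1× PBS with 1% milk, 0.2 mg/ml BSA, 0.5% salmon testes DNA and 0.03% Triton X-100. Bound protein was detected with Alexa488 anti-GST antibody and scanned at 488 nm. Binding intensity is the highest Masliner-normalised natural-log median intensity across replicate spots of either probe orientation.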

| Sequence | gcPBM binding intensity (ln) |
| --- | --- |
| ATATGTATATATACATGTACATATTTTTCCTTTCTT [XGTACX_site149] | 11.2 ± 0.75 |
| TGCATTTATATCTTCACACATATATATATATATATA [CACACA_site4516] | 10 ± 0.26 |
| ACATAAATAAATTAATGTACATATATATTTGTATAT [XGTACX_site3160] | 11.1 ± 0.56 |
| TATATATATATATATACACACACACCCATATATATA [CACACA_site8812] | 10.5 ± 0.79 |
| TTTTTATATGTTAAGTGTACGTTTACATTTTATACT [XGTACX_site3485] | 11.6 ± 1.1 |
| TTTTTTTTTTTTTCAAGTACATATATATATATATAA [XGTACX_site2098] | 11 ± 0.77 |
| CATATATTTTGAAACACACACATATATAATATACAT [CACACA_site1158] | 10.1 ± 0.13 |
| ATGATACTAAAAAATTGTACATATAACAAAAGGTAT [XGTACX_site2527] | 11.1 ± 0.65 |
| AGAACTAAAAGAACATGTACATAAATTCTAAATAAT [XGTACX_site4084] | 11.2 ± 0.7 |
| TTTGTATAATACATGTGTACGTATTTTTATATAAAT [XGTACX_site8656] | 11.6 ± 0.95 |
| TTATCATTATATAGTTGTACATATTTATTTATAAAA [XGTACX_site2310] | 11.5 ± 0.86 |
| TATTTTGTTTTAAAAGTACACACTTTTAATTAGATT [CACACA_site1180] | 11.5 ± 1 |
| ATATTTAAGGCGTGTATGCACACGACTATTCCGTAT [CACACA_site1080] | 10.2 ± 0.15 |
| TTAATTTGTTCTTACACACACATATAAATATATTTA [CACACA_site6676] | 10.11 ± 0.071 |
| ATAACAAAATGAAGAGTGCATTACCAAGTGGGTAAA [GTGCAC_site9450] | 10.1 ± 0.13 |
| TACCTATATAGACACACACACATATATTTATTTATA [CACACA_site6728] | 10.1 ± 0.13 |
| ATATGTACAAGTGTTTATGCTGAACGGAAATCCTGT [CACACA_negctrl_site1372] | 11 ± 0.65 |
| ATTATTATATATGTATGTACTTATATAATATATATA [XGTACX_site5198] | 11.2 ± 0.75 |
| TATATATTGTTATATACACACATGTATTTAAAAAAT [CACACA_site5737] | 10.2 ± 0.39 |
| TTAACAAAACATAAGGTGCTTAAAATTTTATATCAC [GTGCAC_site9839] | 9.84 ± 0.042 |
| TCTGTTAAACAAAAAAGTACTAAAATAATGTAAAAT [XGTACX_site6826] | 11.2 ± 0.6 |
| TATAAACATAATATTTAACACACATGAAGATGTATA [CACACA_site8252] | 9.91 ± 0.13 |
| AATATATATACTATAACACACATACACCCAAAAAAA [CACACA_site4453] | 10.4 ± 0.26 |

| Sequence | gcPBM binding intensity (ln) |
| --- | --- |
| TTATATGGATATACAGTGCATATATACATATAAGTG | 10.1 ± 0.14 |
| AAAAAAAAAAGAAACACACACATATATATATAGAAT [CACACA_site1777] | 9.65 ± 0.22 |
| CATACCTTTTAATGTACACACATTTCTTTTTTGTTA [CACACA_site892] | 11.3 ± 0.72 |
| TATATGTATTTGTATACACACAAATGTATATATTTA [CACACA_site1265] | 9.97 ± 0.18 |
| ATGTATTAAAATTTATGTACTTATATATAAATATAT [XGTACX_site1025] | 11.2 ± 0.88 |
| ATATGATCATACTGTGCATGTTAATGCAAATTTTAT [TGCATGCA_site984] | 10 ± 0.11 |
| TACATATATTATACATGTACACATTTATACATATCG [XGTACX_site2866] | 11.4 ± 0.88 |
| AAAAAAAAAAAAAAAACACACATTTAGCAATCTACA [CACACA_site3706] | 10.4 ± 0.11 |
| TTTTTTTTTATATAAAAAAAAATTTTTATTATTTTA [GTGCAC_negctrl_site347] | 9.42 ± 0.14 |
| CGCACAGACGGACACACACACACATATATATATATA [CACACA_site5249] | 11.5 ± 1.1 |
| ATAATTGTCCATTTTTTCTTTTTTTTTTTCTTTTTA [CACACA_negctrl_site928] | 10.6 ± 0.21 |
| TTCTCCTAATAGTTAGTGCACTACATAACTAAGAAA | 10.7 ± 0.57 |
| ATATTATACCCGTGTACACATTATAACCATATATAA [CACACA_site5933] | 11.7 ± 0.82 |
| TAAAATTAATTTCTGTTGCACTTATTATTAATTAAC | 10.1 ± 0.13 |
| TTTTTTTTTTTTTGCACACACCATATTTATAGAAAT [CACACA_site5772] | 10.2 ± 0.38 |
| TATATGTATAGAAAATGTACATATAAATATATATAT [XGTACX_site3420] | 11 ± 0.67 |
| TTTTATGTAACATCACGTACTTATATTTAAGTATTC [XGTACX_site7459] | 11 ± 0.3 |
| CAAGCACACGGACACACACACACACGCGCACGCACA [CACACA_site6307] | 11.3 ± 0.85 |
| CAATTTATTTTTATTACACACTATCCAAGTAATTTC [CACACA_site7402] | 10.09 ± 0.071 |
| GTCATATTAATATGTACACACATATTTATATTTATA [CACACA_site6798] | 11.3 ± 0.9 |
| TTTTTACTATTTATATGACTAAAAATATATTGAATA [CACACA_negctrl_site188] | 10 ± 0.24 |
| TAAATTAATAAACAAGTGCATATATATATATATATA | 10.3 ± 0.69 |
| TAATTTTTCCAACTTTGTACAGATATATTAATAAAA [XGTACX_site7856] | 10.7 ± 0.43 |

| Sequence | gcPBM binding intensity (ln) |
| --- | --- |
| TCTTTTAAATAACAACATAAATAAATAAATAAATAA [GTGCAC_negctrl_site319] | 9.56 ± 0.11 |
| GTTGATACATGAAGCTGTACATAATATTTGTCATTT [XGTACX_site8628] | 11 ± 0.57 |
| AAATATATCATACAAAGTACTTGGAATTAATATATA [XGTACX_site8907] | 10.9 ± 0.67 |
| AATATAATATAATGCACACATAAAACAAAAAAAAAA [CACACA_site3012] | 10.2 ± 0.4 |
| AAAAAAAAAATATCATGTACAAATATAATAAAATTT [XGTACX_site3896] | 10.7 ± 0.36 |
| CCTTTATTTTATATGTGTACTAAATTGTATATATAT [XGTACX_site8717] | 11.3 ± 0.77 |
| ATGTTTTATAAAAGGCGTACACATATGCTTAAGTAA [XGTACX_site6232] | 11.8 ± 0.94 |
| CTGAAGGAAAAAGAAAGTACTTTTTTTTTTTTGAAG [XGTACX_site5973] | 11.2 ± 0.59 |
| GGCATTTTATGAAGTAGTACCATAAATATTAAAGAT [XGTACX_site5287] | 11.3 ± 0.84 |
| TATAGCAAAAAATTTACACACATGTTTTTTCTATAC [CACACA_site325] | 9.91 ± 0.11 |
| AATTAAAATAGTAATACACACTTCATAGGAAATGAT [CACACA_site5045] | 9.83 ± 0.014 |
| TATGTATCAAATAAATGTACATATATATATATATAT [XGTACX_site2189] | 11 ± 0.61 |
| AATAATAAAATAAAGGCATGCACAATATGCTATAAA [TGCATGCA_site645] | 9.8 ± 0.16 |
| TAAAATATATAAAACTGTACATTTTAAAGGCACAAC [XGTACX_site8342] | 11 ± 0.66 |
| AAATTTTTTATGAACACACAAATACACGCACTCAAA [CACACA_site7286] | 10.8 ± 0.4 |
| TTTTTATTTAATAGTTGTACATTGAAAAATATGTAT [XGTACX_site3025] | 11.3 ± 0.85 |
| TATATATATATATATGTGCACTGGACATATTTTTAT [GTGCAC_site9721] | 10.7 ± 0.58 |
| GCTCTATCAAAAAAATGTACACATATTATCATTCAT [XGTACX_site143] | 11.3 ± 0.76 |
| CAAATAAATATTAAAAGTACACACAGATACACTAAT [XGTACX_site3749] | 11.4 ± 0.86 |
| TGATTAAATAAATATATATATTTATATATTATACAG [CACACA_negctrl_site1596] | 9.9 ± 0.38 |
| TATATTTATTATAATTGTACATAAAATAAACTAAGA [XGTACX_site4318] | 11.1 ± 0.79 |
| AAATAATTAAACATATGTACATATTATATATATATA [XGTACX_site6774] | 11.2 ± 0.53 |
| TCCTCATTTTATCATACACACTTGTTTATATGGGTG [CACACA_site4650] | 10.3 ± 0.15 |

| Sequence | gcPBM binding intensity (ln) |
| --- | --- |
| ACCCATAAAAATTATGCACACTTAATAAAGCGAAAT [CACACA_site5722] | 10.1 ± 0.11 |
| ATAATTTATTTTAAAAGTACTCAATTTGCTTTTCTC [XGTACX_site5749] | 11.3 ± 0.97 |
| TTTACAAAAAATTATACACACACGTACAGATAAATA [CACACA_site4678] | 11.5 ± 0.81 |
| GCTAATTTATTTTGCAGTACATATATAATAATATAT [XGTACX_site478] | 10.9 ± 0.67 |
| AATATTTATATTTAGTGTACAGAAATAAAAAAAAAA [XGTACX_site6066] | 11.3 ± 0.93 |
| CAAAAAAAAAAAAAAACACACATTAAATTAGAAAGA [CACACA_site7271] | 9.64 ± 0.14 |
| ATATACATTTAAATGTGTACATAATAAAATAAAAAA [XGTACX_site8170] | 11.5 ± 1 |
| ACATCTGTTATTTGTGGTACTAAAAAAATATATAGT [XGTACX_site8322] | 11.2 ± 0.76 |
| TCTTTTTAGATATATACACACCGTGTCTACCTATAC [CACACA_site7551] | 10.1 ± 0.23 |
| ATATTCCTACATACAACACACGACGTTCTCATAAGA [CACACA_site231] | 10.1 ± 0.13 |
| GGAAAATGAAAAACAAAAAAAAAAAAAAAAAAATGA [TGCATGCA_negctrl_site432] | 9.64 ± 0.13 |
| AAAAATAGACAAAAGAGTACAAGAAAAAAAGGGTTC [XGTACX_site7843] | 11.3 ± 0.77 |
| TTGATCTATAATAATACACACTTACATAATTAATTA [CACACA_site6273] | 9.96 ± 0.16 |
| ATATATATATATGTCTGTACATAAAAAATAATAAAT [XGTACX_site3122] | 11.1 ± 0.7 |
| TTTTAAAGTTGTGAGCTTCATTTTTATTTATATGTA [CACACA_negctrl_site1505] | 9.87 ± 0.057 |
| TTACAATTAATAAAGTGTACTTAACTATTATATATA [XGTACX_site481] | 11.3 ± 0.95 |
| TTTTTAAATATAAACAAAAAAAAAAAATATATCAAT [XGTACX_negctrl_site328] | 9.805 ± 0.064 |
| ATCATATTTATGTTGGTGCATTATGCATGGATTTTA [GTGCAC_site9795] | 9.915 ± 0.021 |
| ATTTTTATTTTTATTTGTACTTATATATTCTTAAGC [XGTACX_site4122] | 11.3 ± 0.8 |
| ATAATATAAATACAAACACACAATTGTGTCCACATT [CACACA_site6920] | 11.4 ± 0.87 |
